Laboratory results reported in patent US20240043504A1.

Target: SARS-CoV-2 Spike Protein (RBD)(R319-F541).mmH (SARS-CoV-2)
Experiment: Luminex, supernatant
Details: remark: other sources report otherwise

Row | Binder | MFI
1 | mAb10989 (antibody) heavy: QVQLVQSGAEVKKPGASVKVSCKASGYIFTGYYMHWVRQAPGQGLEWMGWINPNSGGANYAQKFQGRVTLTRDTSITTVYMELSRLRFDDTAVYYCARGSRYDWNQNNWFDPWGQGTLVTVSS[human IgG1 constant region left out] light: QSALTQPASVSGSPGQSITISCTGTSSDVGTYNYVSWYQQHPGKAPKLMIFDVSNRPSGVSDRFSGSKSGNTASLTISGLQAEDEADYYCSSFTTSSTVVFGGGTKLTVLGQPKAAPSVTLFPPSSEELQANKATLVCLISDFYPGAVTVAWKADSSPVKAGVETTTPSKQSNNKYAASSYLSLTPEQWKSHRSYSCQVTHEGSTVEKTVAPTECS | 17700 MFI and 17300 MFI
2 | mAb10984 (antibody) heavy: EVQLVESGGGLVQPGGSLRLSCAASGLTVNRNYMSWVRQAPGKGLEWVSLIYSGGSTYYADSVKGRFTISRDNSKNTLYLQMNSLRLEDTAVYYCARGELGIPYGMDVWGQGTTVTVSS[human IgG1 constant region left out] light: QSVLTQPPSVSAAPGQKVTISCSGSSSNIGNNYVSWYQQLPGTAPKLLIYDNNKRPSGIPDRFSGSKSGTSATLGITGLQTGDEADYYCGTWDSSLSAGVFGGGTKLTVLGQPKAAPSVTLFPPSSEELQANKATLVCLISDFYPGAVTVAWKADSSPVKAGVETTTPSKQSNNKYAASSYLSLTPEQWKSHRSYSCQVTHEGSTVEKTVAPTECS | 27900 MFI and 26200 MFI
3 | mAb10982 (antibody) heavy: EVQLVESGGGLVQPGGSLRLSCAASGLTVSSNYMSWVRQAPGKGLEWVSVIYSGGTTYYADSVKGRFTISRHNSKNTLSLQMNSLRAEDTAVYYCARGEGANYYGMDVWGQGTTVTVSS[human IgG1 constant region left out] light: QSVLTQPPSVSGAPGQRVTISCTGSSSNIGTGYDVHWYQQLPGTAPKLLIYGNSNRPSGVPDRFSGSKSGTSASLAITGLQAEDEADYYCQSYDSSLSGYVVFGGGTKLTVLGQPKAAPSVTLFPPSSEELQANKATLVCLISDFYPGAVTVAWKADSSPVKAGVETTTPSKQSNNKYAASSYLSLTPEQWKSHRSYSCQVTHEGSTVEKTVAPTECS | 24300 MFI and 22200 MFI
4 | mAb10985 (antibody) heavy: EVQLVESGGGLVQPGRSLRLSCAASGFTFDDYAMHWVRQAPGKGLEWVSGISWNRGSIGYADSVKGRFTISRDNAKNSLYLQMSSLRAEDTALYYCAKDGERWDSVVVPSARNGMDVWGQGTTVTVSS[human IgG1 constant region left out] light: QSVLTQPPSVSGAPGQRVTISCTGSSSNIGAGYDVHWYQQLPGTAPKLLIYGNSNRPSGVPDRFSGSKSGTSASLAITGLQAEDEADYYCQSYDSSLSGSYVFGTGTKVTVLGQPKAAPSVTLFPPSSEELQANKATLVCLISDFYPGAVTVAWKADSSPVKAGVETTTPSKQSNNKYAASSYLSLTPEQWKSHRSYSCQVTHEGSTVEKTVAPTECS | 30200 MFI and 27900 MFI
5 | mAb10939 (antibody) heavy: EVQLVESGGGLVQPGGSLRLSCAASGLTVSSNYMNWVRQVPGKGLEWVSVIYSGGSKFYVDSVKGRFTISRHNSKNTLYLQMNSLRPEDTAVYYCTRDAQYYGMDVWGQGTTVTVSS[human IgG1 constant region left out] light: DIQMTQSPSSLSASVGDRVTITCRASQSISTYLHWYQQKPGEAPKLLIYAASSLQSGVPSRFSGSGSGTDFTLTISSLQPEDFATYYCQQSYSTPPEIFGQGTKLEIKRTVAAPSVFIFPPSDEQLKSGTASVVCLLNNFYPREAKVQWKVDNALQSGNSQESVTEQDSKDSTYSLSSTLTLSKADYEKHKVYACEVTHQGLSSPVTKSFNRGEC | 32200 MFI and 30900 MFI
6 | mAb10971 (antibody) heavy: EVQLVESGGGLIQPGGSLRLSCAASGVTVSSNYMSWVRQAPGKGLEWVSVIYSGGSTFYSDSVKGRFSISRDNSKNTLYLQMNSLRAEDTAVYYCARDLYYYGMDVWGQGTTVTVSS[human IgG1 constant region left out] light: DIQLTQSPSFLSASVGDRVTITCRASQGISTYLAWYQQKPGKAPKLLIYAASTLQSGVPSRFSGSGSGTEFTLTISSLQPEDFATYYCQQLDSYPGLTFGGGTKVEIKRTVAAPSVFIFPPSDEQLKSGTASVVCLLNNFYPREAKVQWKVDNALQSGNSQESVTEQDSKDSTYSLSSTLTLSKADYEKHKVYACEVTHQGLSSPVTKSFNRGEC | 29400 MFI and 28800 MFI
7 | mAb10915 (antibody) heavy: EVQLVESGGGLVQPGGSLRLSCAASGFTVSSNYMNWVRQAPGKGLEWVSVIYSGGSTFYADSVKGRFTISRHNSKNTLYLQMNSLRPEDTAVYYCARDLGGYFDYWGQGTLVTVSS[human IgG1 constant region left out] light: [about 100 residues left out][about 120 residues left out] | 31800 MFI and 30300 MFI
8 | mAb10965 (antibody) heavy: EVQLVESGGGLIQPGGSLRLSCAASVFTVSYNYMSWVRQAPGKGLEWVSVIYSGGSTYYADSVKGRFTISRDNSKNTLYLQMNSLRAEDTAVYYCARALPGWGGSFEYFDYWGQGTLVTVSS[human IgG1 constant region left out] light: [about 100 residues left out][about 100 residues left out] | 30800 MFI and 26900 MFI

Values joined by “and” are separate entries in the source; they are usually repeats but may differ in a detail not shown here. Equal values may be shown once.
